# “And” between values parts separate entries of the source, which are not always exact repeats. Equal entries are not always repeated. In all, about 350,000 compounds went through this assay and about 700 (0.2%) were called active. Calls come from the whole dose curve; as a rule, active = well fitted inhibition curve with a large enough effect; inconclusive = small, poorly fitted or top-dose-only effect; inactive = flat fitted curve, though single readings scatter. This is a selection; strong and weak results do not stand in their true shares. Some compounds were tested as several samples or in several runs, with calls that do not always agree.
# Molecular target: RecQ-like DNA helicase BLM (Homo sapiens) (UniProt P54132)
# UniProt P54132, sequence (P54132 whole entry, looked up): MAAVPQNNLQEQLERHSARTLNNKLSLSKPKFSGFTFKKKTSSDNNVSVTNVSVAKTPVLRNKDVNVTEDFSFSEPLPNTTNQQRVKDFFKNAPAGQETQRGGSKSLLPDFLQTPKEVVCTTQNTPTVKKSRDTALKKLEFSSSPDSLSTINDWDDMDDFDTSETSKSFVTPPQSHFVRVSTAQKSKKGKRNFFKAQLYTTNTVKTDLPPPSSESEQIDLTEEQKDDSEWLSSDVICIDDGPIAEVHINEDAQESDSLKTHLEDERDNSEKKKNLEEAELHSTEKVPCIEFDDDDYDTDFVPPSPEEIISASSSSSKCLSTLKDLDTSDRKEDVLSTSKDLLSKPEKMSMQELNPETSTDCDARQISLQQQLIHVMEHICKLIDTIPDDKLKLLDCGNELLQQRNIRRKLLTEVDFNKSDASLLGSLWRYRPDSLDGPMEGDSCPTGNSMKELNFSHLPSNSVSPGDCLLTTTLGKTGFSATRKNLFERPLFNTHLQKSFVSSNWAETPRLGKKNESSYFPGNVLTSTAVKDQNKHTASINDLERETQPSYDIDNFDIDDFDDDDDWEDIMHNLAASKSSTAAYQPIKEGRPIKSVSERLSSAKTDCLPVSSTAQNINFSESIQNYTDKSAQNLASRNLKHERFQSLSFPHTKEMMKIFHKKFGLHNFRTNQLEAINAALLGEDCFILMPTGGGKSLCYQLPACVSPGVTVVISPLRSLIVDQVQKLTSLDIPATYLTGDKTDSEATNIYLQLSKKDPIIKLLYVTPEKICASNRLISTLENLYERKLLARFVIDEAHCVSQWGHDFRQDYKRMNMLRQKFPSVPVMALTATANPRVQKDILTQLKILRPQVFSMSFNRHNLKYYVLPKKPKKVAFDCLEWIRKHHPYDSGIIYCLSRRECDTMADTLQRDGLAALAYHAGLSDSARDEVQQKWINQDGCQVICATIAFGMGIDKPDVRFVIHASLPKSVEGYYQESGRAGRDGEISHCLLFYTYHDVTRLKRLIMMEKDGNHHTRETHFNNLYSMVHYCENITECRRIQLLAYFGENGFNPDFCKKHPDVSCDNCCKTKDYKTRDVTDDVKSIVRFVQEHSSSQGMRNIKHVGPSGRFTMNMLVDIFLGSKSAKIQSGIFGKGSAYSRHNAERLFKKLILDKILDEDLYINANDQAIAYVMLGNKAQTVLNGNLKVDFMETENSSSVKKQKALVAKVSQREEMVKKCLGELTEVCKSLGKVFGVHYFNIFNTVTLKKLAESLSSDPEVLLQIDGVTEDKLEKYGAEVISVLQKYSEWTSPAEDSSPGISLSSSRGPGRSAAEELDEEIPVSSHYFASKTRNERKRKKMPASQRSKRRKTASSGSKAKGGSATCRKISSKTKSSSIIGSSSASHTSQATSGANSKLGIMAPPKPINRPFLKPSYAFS
# Assay: qHTS Assay for Inhibitors of Bloom's syndrome helicase (BLM); note: nearly all actives have a fitted effect of over 35% in size;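 for activity change, negative = inhibition: plate controls were vehicle for no effect and no enzyme for full effect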
# Conditions: recombinant BLM DNA unwinding, fluorescence dequenching; series mostly up to 56.1 µM; activity change, negative = inhibition: at the top concentration
# Potency is the fitted concentration of half-maximal effect.
SMILES,Potency,"activity change, negative = inhibition"
O=C(O)c1cc(=O)c2ccc(Cl)cc2[nH]1,inactive,
O=C(O)CN(CC(=O)O)Cc1cc2c(-c3ccccc3C(=O)O)c3cc(CN(CC(=O)O)CC(=O)O)c(=O)cc-3oc2cc1O,active: 15.8 µM,
CN(C)CC[C@@H](c1ccc(Cl)cc1)c1ccccn1,inactive,
Nc1cc(-c2ccncc2)c[nH]c1=O,inactive,
O=C1C(=O)c2ncccc2-c2cccnc21,active: 15.8 µM,
Cc1ccccc1N1C(=O)c2cc(S(N)(=O)=O)c(Cl)cc2NC1C (stereo unspecified),,inactive: -5.18%
Cc1cc2nc3c(=O)[nH]c(=O)[nH]c3nc2c([N+](=O)[O-])c1N,active: 15.8 µM,
Cc1ccc(NC2=CC(=O)c3sc(C)nc3C2=O)cc1,active: 7.94 µM,
CNc1ncnc2c1ncn2[C@@H]1O[C@H](CO)[C@@H](O)[C@@H]1O,,inactive: 4.87% [at 21.4 µM]
CC1(OC(=O)c2cccs2)C(=O)C=C2C=C3CCCN3C=C2C1=O (stereo unspecified),active: 22.4 µM,
COc1cc(NCCCC(C)N)c2ncccc2c1 (stereo unspecified),,inactive: -1.95%
N=C1/C(=C\c2ccc(-c3cccc(C(=O)O)c3)o2)C(=O)N=C2SC=C(c3ccccc3)N12,,inactive: -23.6%
CC(=O)O[C@@H]1C(=O)[C@@]2(C)[C@H](O)C[C@H]3OC[C@]3(OC(C)=O)[C@@H]2[C@H](OC(=O)c2ccccc2)[C@@]2(O)C[C@H](OC(=O)[C@@H](O)[C@@H](NC(=O)c3ccccc3)c3ccccc3)C(C)=C1C2(C)C (stereo in doubt),,inactive: -1.35% [at 21.4 µM]
Cc1nc(SCC(=O)c2ccccc2)c(C#N)c(-c2ccco2)c1C(=O)NCc1ccco1,active: 25.1 µM,
CCc1cccc2c3c([nH]c12)C(CC)(CC(=O)O)OCC3 (stereo unspecified),inactive,
S=C(S)O[C@@H]1C[C@@H]2C[C@H]1[C@@H]1CCC[C@H]21,,inactive: 0.932%
OC[C@H]1O[C@@H](n2cnc3cncnc32)[C@H](O)[C@@H]1O,,inactive: 1.26%
N#Cc1cc2[nH]c(=O)c(=O)[nH]c2cc1[N+](=O)[O-],inactive,
C[C@]12CC[C@@H]3c4ccc(O)cc4CC[C@H]3[C@@H]1CCC2=O,,inactive: -3.03%
COC(=O)c1c(-c2cc(OC)c(OC)c(OC)c2)c2ccnc(OCc3ncccn3)c2c(=O)n1Cc1ccnc(C)c1,,inactive: 4.06%
CC1(C)S[C@@H]2[C@H](NC(=O)C(N)c3ccccc3)C(=O)N2[C@H]1C(=O)O (stereo partly specified),,inactive: -0.798% [at 21.4 µM]
Cc1c2c(c(O)c3c(O)cccc13)C(=O)O[C@H]2C1C(N(C)C)C(O)=C(C(N)=O)C(=O)[C@H]1O (stereo partly specified),active: 17.8 µM,
CN(C)c1ccc(-c2nc(NCc3cccnc3)c3ccccc3n2)cc1,active: 15.8 µM,

SMILES,Potency,"activity change, negative = inhibition"
CCCCCCCC/C=C\CCCCCCCC(=O)NCCc1ccc(O)c(O)c1,inactive,
CC(C)(C)c1ccc([C@@H](O)CCCN2CCC(C(O)(c3ccccc3)c3ccccc3)CC2)cc1,,inactive: -0.0518% [at 21.4 µM]
N#C/C(=C\c1cc(Br)c(O)c(Br)c1)c1nc2ccccc2c(=O)[nH]1,active: 12.6 µM,
CCOC(=O)C1=C[C@]2(CC)CCCN3CCc4c(n1c1ccccc41)[C@@H]32,inactive,
COC(=O)[C@@H]1[C@H]2C[C@H]3c4[nH]c5ccccc5c4CCN3C[C@@H]2CC[C@@H]1O,,inactive: 1.02%
CC(C)C[C@H](NC(=O)[C@H]1O[C@@H]1C(=O)O)C(=O)NCCCCN=C(N)N,,inactive: 4.69%
O=C1OC(Nc2cc(Br)cc3cccnc23)c2ccccc21 (stereo unspecified),active: 22.4 µM,
O=C(CSc1nc(O)cc(=O)[nH]1)Nc1ccc2c(c1)CCC2,active: 22.4 µM,
O=C1CCc2cc(OCCCCc3nnnn3C3CCCCC3)ccc2N1,inactive,
Fc1ccc(C(c2ccc(F)cc2)N2CCN(C/C=C\c3ccccc3)CC2)cc1,inactive,
C[C@@H](NC(=O)/C(C#N)=C/c1ccc(O)c(O)c1)c1ccccc1,,inactive: -13.5%
O=c1oc2cc(O)ccc2c2oc3cc(O)ccc3c12,,inactive: -24.8%
OCc1cc(C(O)CNCCCCCCOCCCCc2ccccc2)ccc1O (stereo unspecified),inactive,
N[C@H](Cc1ccc(Cl)cc1)C(=O)O,,inactive: 0.0534%
COc1cc2cc3c4c(cc(OC)c(OC)c4c2cc1OC)CCN3C,active: 3.98 µM,
CC(C)c1ccc(S(=O)(=O)/N=C2/C=C(Sc3ncn[nH]3)C(=O)c3ccccc32)cc1,active: 10 µM,
COc1cccc(/C=N/Nc2ncnc3c2[nH]c2ccc(C)cc23)c1OC,active: 14.1 µM,
CC(=O)N[C@H](CS)C(=O)O,,inactive: -8.41%
CCCCCCCCCCC/C=C\C(C)(C)/C=C\CCCC(=O)O,,inactive: -2.86%
Cc1ccc(SCc2cc(=O)c3c(=O)n(-c4ccccc4)[nH]c3[nH]2)cc1,active: 15.8 µM,
CN(C)[C@@H]1C(=O)C(C(N)=O)=C(O)[C@@]2(O)C(=O)C3=C(O)c4c(O)ccc(Cl)c4[C@@H](O)[C@H]3C[C@@H]12,,inactive: -8.62%
COc1c2c(nc3ccccc13)OC(C(C)(O)CO)C2 (stereo unspecified),inactive,
CS(=O)(=O)c1ccc2nc(NC(=O)c3ccc(Cl)nc3)sc2c1,active: 17.8 µM,

SMILES,Potency,"activity change, negative = inhibition"
O=C(O)/C=C/c1cnc[nH]1,,inactive: 4.19%
O=C(N/N=C/c1cn(-c2cccs2)nc1-c1ccccc1)c1ccccc1O,active: 20 µM,
Nc1ccc2c3c(cccc13)C(=O)NC2=O,,inactive: -20.8%
NC1=NC[C@H](Cc2ccc(O)cc2)N1CCc1cccc2ccccc12,,inactive: 38%
Cc1cccc(C(=O)NCN2CCN(c3ccccc3C#N)CC2)c1,,inactive: -0.795%
CCc1ccc(C(=O)c2cn(CC(=O)Nc3ccc4c(c3)OCO4)c3ccc(OC)cc3c2=O)cc1,active: 14.1 µM,
N.N.O=C(O)C1(C(=O)O)CCC1.[Pt],,inactive: -0.104%
CCCn1c(=O)c2[nH]c(-c3ccc(OCC(=O)Nc4ccc(C#N)cc4)cc3)nc2n(CCC)c1=O,,inactive: -2.57%
COC(=O)C1=C(C)NC(C)=C(C(=O)OCCN(C)Cc2ccccc2)[C@H]1c1cccc([N+](=O)[O-])c1,,inactive: -2.36% [at 21.4 µM]
O=C1/C(=C/c2ccco2)SC(=S)N1c1cccnc1,active: 31.6 µM,
CN1C(=CC=C2C=C(I)C(=O)C(I)=C2)C(C)(C)c2ccccc21,active: 28.2 µM,
C=CC1=C(C)C2=NC1=CC1=NC(=CC3=NC(=CC4=NC(=C2)C(C)=C4CCC(=O)O)C(CCC(=O)O)=C3C)C(C=C)=C1C.[Zn],active: 35.5 µM,
CC(=O)OCC1=C(C(=O)O)N2C(=O)[C@@H](NC(=O)Cc3cccs3)[C@H]2SC1,inactive,
COc1cc(=O)n(C)c2c(OC[C@@H](O)C(C)(C)O)cccc12,,inactive: 3.58% [at 21.4 µM]
O=C1CCC(N2C(=O)c3ccccc3C2=O)C(=O)N1 (stereo unspecified),inactive,
O=C1NC(=O)/C(=C\c2ccccc2OCc2ccccc2)S1,,inactive: -10%
O=c1cc(-c2ccccc2Cl)oc2c(NS(=O)(=O)c3cc(Cl)cc(Cl)c3O)ccc(O)c12,,inactive: -27.2%
CC(C)C[C@@H](NC(=O)[C@@H](O)[C@H](N)Cc1ccccc1)C(=O)O,,inactive: 1.4%
CN(CCOc1ccc(C[C@H](Nc2ccccc2C(=O)c2ccccc2)C(=O)O)cc1)c1ccccn1,,inactive: -3.47%
CC[C@@H](C)[C@H]1O[C@]2(CC[C@@H]1C)C[C@@H]1C[C@H](C/C=C(/C)[C@H](O[C@@H]3C[C@H](OC)[C@H](O[C@@H]4C[C@H](OC)[C@@H](O)[C@H](C)O4)[C@H](C)O3)[C@@H](C)/C=C\C=C3CO[C@@H]4[C@H](O)C(C)=C[C@@H](C(=O)O1)[C@]34O)O2 (tested in a mixture with another compound),,inactive: -12.5%
CC(C)(CO)Cc1cc(C(C)(C)C)c(O)c(C(C)(C)C)c1,,inactive: -18.2%
O=C(O)CN(CCN(CC(=O)O)CC(=O)O)CCN(CC(=O)O)CC(=O)O,inactive,
CCCn1cnc2c1c(=O)n(CCCCC(C)=O)c(=O)n2C,,inactive: 4.07%

SMILES,Potency,"activity change, negative = inhibition"
COC(=O)[C@@H]1[C@@H]2C[C@H]3c4[nH]c5cc(OC)ccc5c4CCN3C[C@@H]2C[C@H](OC(=O)c2cc(OC)c(OC)c(OC)c2)[C@H]1OC,,inactive: -12% [at 21.4 µM]
O=[N+]([O-])c1cc2nc(O)c(O)nc2cc1[N+](=O)[O-],,inactive: -0.424%
CC(C)NCC(O)c1cc(O)cc(O)c1 (stereo unspecified),inactive,
COc1ccc(N2Cc3cccc(C(=O)N4CCN(C(=O)c5ccco5)CC4)c3C2=O)cc1,active: 17.8 µM,
CC(C)(C(=O)O)c1ccc([C@H](O)CCCN2CCC(C(O)(c3ccccc3)c3ccccc3)CC2)cc1,,inactive: -0.503%
C=CCn1c(N)c(C(=O)NCC2CCCO2)c2nc3ccccc3nc21 (stereo unspecified),active: 5.62 µM,
COc1ccccc1CNC(=O)COC(=O)c1cc(-c2ccco2)nc2ccccc12,active: 11.2 µM,
COc1ccccc1N1CCN(CCCNc2cc(=O)n(C)c(=O)n2C)CC1,inactive,
O=C(O)CCCCC1CCSS1 (stereo unspecified),inactive and active: 14.1 µM,
O=c1c2ccccc2nc2n1CCc1c-2[nH]c2ccccc12,,inactive: -6.62%
COc1ccccc1CNC(=O)/C=C/c1ccc(Br)o1,active: 10 µM,
Cc1c(N2C(=O)c3ccc4c5c(ccc(c35)C2=O)CC4)c(=O)n(-c2ccccc2)n1C,active: 14.1 µM,
CCCCNc1ccc(C(=O)OCCN(C)C)cc1,inactive,
O=C1C=C(N2CCOCC2)c2ccccc2C1=O,active: 8.91 µM,
Cc1cnc(C(=O)NCCc2ccc(S(=O)(=O)NC(=O)NC3CCCCC3)cc2)cn1,inactive,
Nc1ccc2c(c1Cl)C(=O)c1ccc(N)c(Cl)c1C2=O,active: 14.1 µM,
CC(=O)SC1CC2=CC(=O)CCC2(C)C2CCC3(C)C(CCC34CCC(=O)O4)C12 (stereo unspecified),,inactive: -10.3%
COC(=O)C1=C(C)NC(C)=C(C(=O)OCCN(C)Cc2ccccc2)C1c1cccc([N+](=O)[O-])c1 (stereo unspecified),inactive,
NCCCC(N)(C(=O)O)C(F)F (stereo unspecified),,inactive: -6.85%
c1ccc([C@@H]2CN3CCSC3=N2)cc1,,inactive: 1.05% [at 21.4 µM]
Cc1ccccc1C(OCCN(C)C)c1ccccc1 (stereo unspecified),inactive,
COC(=O)C1=C(C)NC(C)=C([N+](=O)[O-])[C@@H]1c1ccccc1C(F)(F)F,inactive,

# — PubChem BioAssay AID2528 (National Center for Advancing Translational Sciences (NCATS), 2010)
